B1: GPR68, Q15743 (parent)
chain: MGNITADNSSMSCTIDHTIHQTLAPVVYVTVLVVGFPANCLSLYFGYLQIKARNELGVYLCNLTVADLFYICSLPFWLQYVLQHDNWSHGDLSCQVCGILLYENIYISVGFLCCISVDRYLAVAHPFRFHQFRTLKAAVGVSVVIWAKELLTSIYFLMHEEVIEDENQHRVCFEHYPIQAWQRAINYYRFLVGFLFPICLLLASYQGILRAVRRSHGTQKSRKDQIQRLVLSTVVIFLACFLPYHVLLLVRSVWEASCDFAKGVFNAYHFSLLLTSFNCVADPVLYCFVSETTHRDLARLRGACLAFLTCSRTGRAREAYPLGAPEASGKSGAQGEEPELLTKLHPAFQTPNSPGSGGFPTGRLA

In data set [1] the parent is B1. Put plainly: cAMP reporter score (Enrich2 score, wild type = 0); higher = more signal; HEK293T, FACS bins.
In data set [2] the parent is B1. Briefly: surface expression score (Enrich2 score, wild type = 0); higher = more signal; HEK293T, FACS bins.

The least precise scores are not listed. Two further conditions of the source, in which the scores hardly spread, are not listed. Read del as a deletion of the residues named and ins as an insertion between two positions. For part of these data: The data file names ogerin without a concentration.

With T152N, the cAMP reporter score in data set [1] (pH 5.5) is -0.392; in data set [1] (pH 6) it was -0.992; in data set [1] (pH 6.5, modulator: ogerin) it was -0.437.

As to T152Y, the cAMP reporter score in data set [1] (pH 5.5) was -0.406; in data set [1] (pH 6) it was -1.28; in data set [1] (pH 6, modulator: ogerin), -1.3. In addition, the surface expression score in data set [2] was 0.534.

With T152D, the cAMP reporter score in data set [1] (pH 5.5) was -0.926; in data set [1] (pH 6), -0.946; in data set [1] (pH 6, modulator: ogerin), -2.23; in data set [1] (pH 6.5, modulator: ogerin), -1.55. For the same variant, in data set [2], the surface expression score was -1.6.

Regarding T152G, the cAMP reporter score in data set [1] (pH 5.5) is 0.417; in data set [1] (pH 6), 2.02; in data set [1] (pH 6, modulator: ogerin) it was -0.614; in data set [1] (pH 6.5, modulator: ogerin) it was -0.334. For the same variant, the surface expression score in data set [2] was -0.674.

Consider H175_Y176insGSG, for which the cAMP reporter score is -1.29 in data set [1] (pH 5.5); -1.16 in data set [1] (pH 6); -1.74 in data set [1] (pH 6, modulator: ogerin); -0.936 in data set [1] (pH 6.5, modulator: ogerin). Further, in data set [2], the surface expression score came out at 0.609.

H159_E160insGS: the cAMP reporter score was -1.37 in data set [1] (pH 5.5); -0.201 in data set [1] (pH 6); -0.843 in data set [1] (pH 6, modulator: ogerin); -1.52 in data set [1] (pH 6.5, modulator: ogerin). In addition, the surface expression score in data set [2] worked out at 0.651.

As to E166_N167del, the cAMP reporter score in data set [1] (pH 5.5) is -1.16; in data set [1] (pH 6), -1.14; in data set [1] (pH 6, modulator: ogerin), -1.23; in data set [1] (pH 6.5, modulator: ogerin) it was -0.926. Also, in data set [2], the surface expression score amounted to 1.37.

In the case of S153_I154del, the cAMP reporter score in data set [1] (pH 5.5) was -0.897; in data set [1] (pH 6), -1.11; in data set [1] (pH 6, modulator: ogerin), -2.16; in data set [1] (pH 6.5, modulator: ogerin), -1.17. Further, in data set [2], the surface expression score is -1.71.

In the case of H169_R170insGS, the cAMP reporter score is -1.44 in data set [1] (pH 5.5); -1.29 in data set [1] (pH 6); -1.11 in data set [1] (pH 6, modulator: ogerin); -0.832 in data set [1] (pH 6.5, modulator: ogerin). For the same variant, in data set [2], the surface expression score is 0.454.

As for R189_F190insGSG, the cAMP reporter score was -1.29 in data set [1] (pH 5.5); -1.62 in data set [1] (pH 6); -1.15 in data set [1] (pH 6, modulator: ogerin); -1.09 in data set [1] (pH 6.5, modulator: ogerin). In addition, the surface expression score in data set [2] was -2.06.

On to F173P, for which the cAMP reporter score in data set [1] (pH 5.5) is -1.88; in data set [1] (pH 6), -1.31; in data set [1] (pH 6, modulator: ogerin) it was -0.826; in data set [1] (pH 6.5, modulator: ogerin) it was -1.35. In addition, the surface expression score in data set [2] is -0.981.

For the variant F173S, the cAMP reporter score is -1.53 in data set [1] (pH 5.5); -0.705 in data set [1] (pH 6); -1.42 in data set [1] (pH 6, modulator: ogerin); -1.31 in data set [1] (pH 6.5, modulator: ogerin). The surface expression score in data set [2] is -0.432.

F173W: the cAMP reporter score in data set [1] (pH 5.5) is 0.338; in data set [1] (pH 6) it was 1.76; in data set [1] (pH 6, modulator: ogerin), 1.03; in data set [1] (pH 6.5, modulator: ogerin) it was 1.52. Further, the surface expression score in data set [2] was determined as 0.687.

As for F173G, the cAMP reporter score in data set [1] (pH 5.5) was -0.584; in data set [1] (pH 6), -1.06; in data set [1] (pH 6, modulator: ogerin), -1.38; in data set [1] (pH 6.5, modulator: ogerin) it was -0.381. Further, the surface expression score in data set [2] came to 0.165.

Take F173K: the cAMP reporter score in data set [1] (pH 5.5) was -0.798; in data set [1] (pH 6, modulator: ogerin), -1.14; in data set [1] (pH 6.5, modulator: ogerin), -1.34. Moreover, in data set [2], the surface expression score is -0.474.

F173T: the cAMP reporter score in data set [1] (pH 5.5) was -1.49; in data set [1] (pH 6) it was -1.26; in data set [1] (pH 6.5, modulator: ogerin), -1.51. The surface expression score in data set [2] was -0.351.

F173I: the cAMP reporter score in data set [1] (pH 5.5) was -0.866; in data set [1] (pH 6), -0.562; in data set [1] (pH 6, modulator: ogerin), -0.833; in data set [1] (pH 6.5, modulator: ogerin), -0.952. Besides, the surface expression score in data set [2] is -0.239.

As for F173D, the cAMP reporter score in data set [1] (pH 5.5) was -1; in data set [1] (pH 6), -0.678; in data set [1] (pH 6, modulator: ogerin), -1.52; in data set [1] (pH 6.5, modulator: ogerin), -0.937. In addition, the surface expression score in data set [2] was -1.38.

In the case of F173H, the cAMP reporter score in data set [1] (pH 5.5) is -0.216; in data set [1] (pH 6), -0.457; in data set [1] (pH 6.5, modulator: ogerin) it was -0.868. Further, the surface expression score in data set [2] was determined as 0.236.

On to F173E, for which the cAMP reporter score in data set [1] (pH 5.5) was -1.15; in data set [1] (pH 6.5, modulator: ogerin) it was -1.77. In addition, in data set [2], the surface expression score was -1.65.

On to F173C, for which the cAMP reporter score was -1.68 in data set [1] (pH 5.5); -1.04 in data set [1] (pH 6); -1.4 in data set [1] (pH 6, modulator: ogerin); -0.245 in data set [1] (pH 6.5, modulator: ogerin). In addition, the surface expression score in data set [2] was -1.17.

As for F173Q, the cAMP reporter score is -0.703 in data set [1] (pH 5.5); -0.243 in data set [1] (pH 6); -1.33 in data set [1] (pH 6, modulator: ogerin); -0.599 in data set [1] (pH 6.5, modulator: ogerin). Besides, the surface expression score in data set [2] is -0.433.

Take F173V: the cAMP reporter score is -1.46 in data set [1] (pH 5.5); -1.1 in data set [1] (pH 6); -1.72 in data set [1] (pH 6, modulator: ogerin); -1.21 in data set [1] (pH 6.5, modulator: ogerin). Further, the surface expression score in data set [2] was -0.251.

Consider F173Y, for which the cAMP reporter score was 0.044 in data set [1] (pH 5.5); -0.259 in data set [1] (pH 6); -1.29 in data set [1] (pH 6, modulator: ogerin); -1.25 in data set [1] (pH 6.5, modulator: ogerin). In data set [2], the surface expression score is 0.375.

F173M: the cAMP reporter score in data set [1] (pH 5.5) was -1.73; in data set [1] (pH 6), -1.75; in data set [1] (pH 6, modulator: ogerin) it was -1.74; in data set [1] (pH 6.5, modulator: ogerin), -0.916. The surface expression score in data set [2] was determined as 0.12.

Regarding F173L, the cAMP reporter score in data set [1] (pH 5.5) was -1.32; in data set [1] (pH 6) it was -1.08; in data set [1] (pH 6, modulator: ogerin) it was -1.68; in data set [1] (pH 6.5, modulator: ogerin), -1.12. Further, the surface expression score in data set [2] is -1.22.

For Y155_F156del, the cAMP reporter score was -1.53 in data set [1] (pH 5.5); -0.32 in data set [1] (pH 6); -1.09 in data set [1] (pH 6, modulator: ogerin); -0.883 in data set [1] (pH 6.5, modulator: ogerin). In data set [2], the surface expression score was -2.51.

Take D165_E166insGSG: the cAMP reporter score in data set [1] (pH 5.5) is -0.653; in data set [1] (pH 6), -0.718; in data set [1] (pH 6, modulator: ogerin), -0.62; in data set [1] (pH 6.5, modulator: ogerin), 0.131. Moreover, in data set [2], the surface expression score is 0.95.

In the case of F190del, the cAMP reporter score in data set [1] (pH 5.5) worked out at 2.48; in data set [1] (pH 6, modulator: ogerin), 0.92; in data set [1] (pH 6.5, modulator: ogerin) it was 0.137. In addition, the surface expression score in data set [2] is -1.84.

For F156_M158del, the cAMP reporter score in data set [1] (pH 5.5) was -1.24; in data set [1] (pH 6, modulator: ogerin), -1.11; in data set [1] (pH 6.5, modulator: ogerin), -0.449. For the same variant, the surface expression score in data set [2] was -2.77.

As to Y155_F156insGS, the cAMP reporter score was -1.77 in data set [1] (pH 5.5); -1.78 in data set [1] (pH 6); -1 in data set [1] (pH 6, modulator: ogerin); -1.57 in data set [1] (pH 6.5, modulator: ogerin). In addition, in data set [2], the surface expression score was -1.48.

With Q179_A180insGS, the cAMP reporter score in data set [1] (pH 5.5) was -1.59; in data set [1] (pH 6) it was -0.771; in data set [1] (pH 6, modulator: ogerin), -1.05; in data set [1] (pH 6.5, modulator: ogerin) it was -0.822. Besides, in data set [2], the surface expression score was -1.05.

Source of the values: the GPR68 mutational scans of Howard et al. (2025).
